# Results: article PMC4336329 (PLoS ONE, 2015)
# Among all 310,000 compounds or so, about 2,200 (0.71%) showed an effect of 50% or more. The effect is printed as a negative number. The list shows a part of the results.
# Target: human ether-à-go-go-related gene (hERG) potassium channel (human, UniProt Q12809)
# Assay: primary screen, population patch clamp on CHO cells stably expressing hERG
# Sequence of human ether-à-go-go-related gene (hERG) potassium channel (Q12809 whole entry, looked up): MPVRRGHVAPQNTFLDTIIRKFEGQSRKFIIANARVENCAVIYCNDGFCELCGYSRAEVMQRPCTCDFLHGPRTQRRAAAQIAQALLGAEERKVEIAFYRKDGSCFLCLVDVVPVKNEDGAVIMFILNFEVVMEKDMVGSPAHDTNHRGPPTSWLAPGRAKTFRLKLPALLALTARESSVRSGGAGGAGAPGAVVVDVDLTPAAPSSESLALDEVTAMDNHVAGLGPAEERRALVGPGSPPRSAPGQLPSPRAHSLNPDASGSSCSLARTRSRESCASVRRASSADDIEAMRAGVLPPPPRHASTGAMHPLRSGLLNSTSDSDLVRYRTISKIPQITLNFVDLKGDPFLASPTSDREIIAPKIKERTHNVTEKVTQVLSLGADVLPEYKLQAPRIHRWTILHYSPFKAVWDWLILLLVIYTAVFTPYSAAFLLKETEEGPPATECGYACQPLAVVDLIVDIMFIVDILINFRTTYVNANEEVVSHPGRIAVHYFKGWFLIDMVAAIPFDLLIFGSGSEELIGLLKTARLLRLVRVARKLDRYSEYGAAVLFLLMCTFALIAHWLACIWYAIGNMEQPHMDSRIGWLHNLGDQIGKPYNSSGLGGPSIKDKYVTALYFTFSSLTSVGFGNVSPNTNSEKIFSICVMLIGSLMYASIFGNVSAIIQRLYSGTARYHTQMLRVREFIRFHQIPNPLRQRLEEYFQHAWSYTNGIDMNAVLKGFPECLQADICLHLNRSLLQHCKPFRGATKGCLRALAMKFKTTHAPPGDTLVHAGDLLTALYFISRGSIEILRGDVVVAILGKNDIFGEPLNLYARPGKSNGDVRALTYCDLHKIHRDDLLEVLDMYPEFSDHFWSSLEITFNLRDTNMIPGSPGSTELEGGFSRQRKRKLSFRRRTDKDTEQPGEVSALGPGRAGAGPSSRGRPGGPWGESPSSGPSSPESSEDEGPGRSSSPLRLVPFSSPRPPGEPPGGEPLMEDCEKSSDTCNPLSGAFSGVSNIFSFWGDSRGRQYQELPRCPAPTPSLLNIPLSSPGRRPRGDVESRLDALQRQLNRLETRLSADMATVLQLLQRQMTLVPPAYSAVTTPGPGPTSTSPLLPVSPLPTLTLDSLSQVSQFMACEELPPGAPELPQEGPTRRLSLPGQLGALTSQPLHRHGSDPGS
row,SMILES,"hERG current change (%, negative = inhibition) at 1uM"
1,COc1ccccc1NC(CC(=O)c1ccccc1)C(=O)OCC(=O)c1ccc(Br)cc1 (stereo not drawn),0.692%
2,Cc1ccc(N2CC(C(=O)Nc3ncc([N+](=O)[O-])s3)CC2=O)cc1 (stereo not drawn),2.03%
3,COc1ccc(Cn2c(CCC(=O)Nc3ccccc3)nc3cccnc32)cc1,-1.86%
4,CSc1ccccc1OCc1cc(C(=O)N(C)Cc2c(C)n[nH]c2C)no1,8.03%
5,Cc1noc(C)c1CCC(=O)NC1CCCN(Cc2ccc(Cl)cc2)C1 (stereo not drawn),-8.93%
6,COc1cc(CNCCSc2nnnn2C)cc(Br)c1OCc1ccc(F)cc1.Cl,-8.18%
7,COc1ccc(CN2CCNC(=O)C2CC(=O)NCCCn2nnc3ccccc32)cc1C (stereo not drawn),7.58%
8,O=S(=O)(Cc1ccccc1)N1CCN(Cc2ccc(Br)cc2)CC1,13.2%
9,O=C(CSc1ccccc1F)NNC(=O)c1ccncc1,11.9%
10,COc1ccc(C2N(c3ccccn3)C(=O)C3CCCN32)c(OC)c1 (stereo not drawn),5.94%
11,CC(=O)Nc1cccc(C(=O)OC(C)C(=O)N2CCc3ccccc32)c1 (stereo not drawn),-13%
12,COc1ccc(C(=O)NC2CCCCCC2)cc1S(=O)(=O)N1CCCc2ccccc21,10.2%
13,CCn1c(SCC(=O)c2cccs2)nnc1-c1cccs1,1.77%
14,CC(=O)c1cccc(NC(=O)CCNS(=O)(=O)c2cccc3nonc23)c1,16.5%
15,Cc1c(Cl)cccc1NC(=O)c1ccc(-n2ccnc2)nc1,2.96%
16,Cc1ccsc1-c1nc(CN2C[C@@H](C)O[C@@H](C)C2)c(C)o1,13.7%
17,COc1cc(C2CC(=O)Oc3c(C(CCN4CCN(c5ccccc5)CC4)c4ccc(N(C)C)cc4)c(OC)cc(OC)c32)cc(OC)c1OC (stereo not drawn),-0.617%
18,CN(Cc1c(O)ccc2c1oc(=O)c1ccccc12)C1CCCCC1,6.64%
19,CCOC(=O)C1C(=O)C=C(c2ccc(C)cc2)CC1c1ccco1 (stereo not drawn),11.2%
20,Cc1c(C)n(CCc2ccccc2)c2ncnc(NN)c12,1.71%
21,CC(=O)c1cc(NC(=O)c2cccc(C(F)(F)F)c2)c(=O)oc1/C=C/N(C)C,4.85%
22,COc1cc(C(=O)Nc2ccc(S(=O)(=O)Nc3nccc(C)n3)cc2)cc(OC)c1OC,11.4%

row,SMILES,"hERG current change (%, negative = inhibition) at 1uM"
1,CN(C)C(Cc1ccccc1)C(=O)c1ccc(-c2ccccc2)cc1.Cl (stereo not drawn),16.1%
2,Cc1cc(NS(=O)(=O)c2ccc(NC(=O)CCCOc3ccccc3)cc2)no1,16.4%
3,COc1cc(CN2CC(=O)N(c3ccc(C)c(Cl)c3)C2=S)cc(OC)c1OC,14.8%
4,COc1ccc(C(=O)Nc2ccc(NC(=O)c3cccc(OC)c3)cn2)cc1,18.2%
5,CC1=NN(C(=O)c2ccc(Cl)cc2)C(O)(c2ccccc2)C1 (stereo not drawn),21.2%
6,NS(=O)(=O)c1ccc(CCNC(=O)c2nc(CS(=O)(=O)c3ccc(Cl)cc3)no2)cc1,-2.39%
7,Cc1cc(Cl)c2oc(C(=O)N(CCO)Cc3ccccc3)c(C)c2c1,15.5%
8,Nc1ncnc(Nc2ccccc2C(F)(F)F)n1,4.96%
9,CC(=O)c1ccc(NC(=O)c2cc(=O)[nH]c3ccccc23)cc1,5.01%
10,Cc1cnn(C(=S)NCc2ccc(Cl)cc2)c1,15.3%
11,CCN(CC)C(=O)Cn1cc(C(=O)C(=O)NCc2ccccn2)c2ccccc21,7.46%
12,COc1ccc(OC)c2sc(N3CCCCC3)nc12,12%
13,Cc1ccc(O)c(-c2cc(C(=O)NCc3ccccc3)[nH]n2)c1,-2.35%
14,COc1ccc(C(=O)N(C)Cc2ccccc2)cc1Br,6.31%
15,CC(=O)c1sc(NC(=O)C(C)C)nc1C,6.12%
16,O=C(NN1C(=O)/C(=C/c2ccc(O)c([N+](=O)[O-])c2)SC1=S)c1ccccc1Cl,-2.08%
17,CCOCCCN(C(=O)c1snc(C(N)=O)c1N)C(C(=O)NC1CCCC1)c1ccc(O)cc1 (stereo not drawn),14.6%
18,O=C(Nc1ccc(Br)cc1Cl)c1cnccn1,7.08%
19,COc1ccccc1C(=O)N1CCN(C(=O)Cc2ccccc2)CC1,10.2%
20,COc1cccc(-c2nn(-c3ccccc3)cc2CN2CCCO2)c1,9.68%
21,N#C/C(=C\Nc1ccccc1SC(F)(F)F)c1nc(-c2ccccc2)cs1,6.83%
22,COC(=O)C1=C2SCC(=O)N2C(N)=C(C#N)C1,11.5%

row,SMILES,"hERG current change (%, negative = inhibition) at 1uM"
1,CC(OC(=O)C1CC(=O)N(Cc2ccccc2)C1)C(=O)Nc1cccc(C#N)c1 (stereo not drawn),6.08%
2,CC(=O)Nc1ccc(Nc2ccc3nonc3c2[N+](=O)[O-])cc1,-0.426%
3,O=C(O)c1nccnc1C(=O)NCc1csc2ccc(Cl)cc12,13%
4,O=C(Cc1ccccc1)Nc1ccc(C(=O)NCc2ccccc2)cc1,18.6%
5,COC(=O)c1ccc(NC(=O)C(=O)N2CCCC2)cc1,2.04%
6,CC(=O)Nc1cccc(C(=O)/C=C/c2ccc(C)cc2)c1,-4.5%
7,Cc1ccc(S(=O)(=O)N2CCCCC2)cc1NC(=O)CSc1nnc(N)s1,-8.31%
8,O=C(COc1cccc(C(F)(F)F)c1)NCCCN1CCCC1=O,-1.13%
9,CC(C)CCNC(=O)C(C)N(Cc1ccc(F)cc1)C(=O)c1ccc(CN2CCCCC2)o1 (stereo not drawn),-12.3%
10,CCn1c(=O)c2cc(C(=O)NCCCOC)sc2c2ccccc21,16.1%
11,CCOC(=O)c1c(N)c(C#N)c2n1CCCCC2,5.83%
12,CC(C)N(Cc1ccccc1)C(=O)COC(=O)C1CCN(S(=O)(=O)c2ccc3c(c2)OCCO3)CC1,10.2%
13,Cc1cccnc1NC(=O)COc1ccc2c(c1)CCC2,4.83%
14,O=C(O)C[C@H]1c2ccccc2S(=O)(=O)N1C1CCCC1,20.4%
15,O=C(NCc1ccccc1)/C(NC(=O)c1ccccc1)=C(/Sc1ccccn1)c1ccccc1,14.2%
16,COc1cccc(-c2csc(N3CCN(CC(=O)NNC(=O)c4ccc(Cl)cc4)CC3)n2)c1,8.21%
17,CC(Sc1nc(-c2ccccc2)cc(C(F)(F)F)n1)C(=O)N1CCCCC1 (stereo not drawn),-6.22%
18,CC(C(=O)N1CCOCC1)c1ccc([N+](=O)[O-])cc1 (stereo not drawn),9.61%
19,Cc1ccc(OCC(=O)N2CCN(C3=NS(=O)(=O)c4ccccc43)CC2)cc1,-30.7%
20,CC(C)[C@H](NC(=O)N1c2ccccc2NC(=O)[C@@H]1C(C)C)C(=O)N[C@H](Cc1ccccc1)C(=O)O,6.78%
21,COC(=O)c1c(C)nc(C)c(C(=O)OC)c1-c1ccc(OC)c(OC)c1,12.7%
22,CC(=O)N(CC(C)C(=O)O)c1c(I)cc(I)c(N)c1I (stereo not drawn),17.5%

row,SMILES,"hERG current change (%, negative = inhibition) at 1uM"
1,CCC(C)NC(=O)N[C@@H](CCSC)C(=O)O (stereo partly drawn),8.95%
2,Cc1cc(C(=O)NCc2ccccc2Cl)c2ccccc2n1,5.92%
3,NC(=O)C[N+]1(CC#CC(O)(c2ccccc2)c2ccccc2)CCCC1.[I-],13.9%
4,CCCNC(=O)CS(=O)(=O)Cc1nc(-c2cccc(OC)c2)oc1C,-284%
5,CCOc1ccccc1CNC(=O)c1ccc2c(c1)N(CC)CCS2,-2.83%
6,Cc1c(NCc2ccncc2)cccc1C(=O)O,14.3%
7,Cn1c(O)c(N=NC(=N)N)c2ccccc21,25.5%
8,COC(=O)C1=C(c2ccc(OC)c(OC)c2)C[C@@H]2CC[C@H]1N2C(=O)NC1CCCCC1,13.7%
9,O=C(O)c1ccccc1CSc1ccccn1,14%
10,O=C1c2cccnc2C(=O)N1Cc1ccc(S(=O)(=O)N2CCN(c3ccc(Cl)cc3)CC2)cc1,12%
11,CC(=O)C1=C(C)OC(N)=C(C#N)C1c1cccc2ccccc12 (stereo not drawn),4.99%
12,COC(=O)C1=C(C(=O)OC)[C@@H]2Nc3ccccc3[C@@]23C[C@@H](C(=O)OC)N(C(=O)c2ccco2)C3=N1,6.27%
13,COc1ccc(-c2nc(-c3ccccc3)ncc2S(C)(=O)=O)cc1,7.49%
14,C[C@@H]1CN(Cc2nc(-c3cnccn3)no2)C[C@H](C)O1,5.17%
15,O=C(COc1nncc2ccccc12)Nc1c(F)c(F)c(F)c(F)c1F,10.3%
16,Cn1c(=O)c2c(O)c([N+](=O)[O-])c(=O)n(C)c2n(C)c1=O,13.3%
17,Cn1cc(SCC(=O)NCc2ccc(F)cc2)c2ccccc21,6.71%
18,Cc1occc1-c1nnc(SCC(=O)N2CCCC(C)C2)o1 (stereo not drawn),8.35%
19,CC(=O)N(C(C)=O)c1c(N2CCOCC2)c2ccccc2oc1=O,8.41%
20,CC1CCN(S(=O)(=O)c2cccc(-c3nnc(-c4cccnc4)o3)c2)CC1,-2.27%
21,CCOc1cc(/C=C2\C(=O)N(c3nc(-c4ccc(Br)cc4)cs3)N=C2c2ccccc2)ccc1O,9.46%
